Source: the supplement of paper PMC9446081
Screen size: about 39,000 compounds; about 220 (0.56%) showed activity. This is one part of the list.

The compounds below were run on Escherichia coli K-12 BW25113 (assay: relative growth (OD600 normalised to plate interquartile mean) (fraction); higher = less growth inhibition, active = 0.2 or less). Conditions: 50 µM; LB; incubation time: overnight (16-24 h).
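Also: static incubation at 37 °C against the wild-type strain, values averaged over two biological replicates.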

| Compound | relative growth |
| --- | --- |
| C[C@@H]1CN([C@@H](C)CO)C(=O)c2c(c3ccccc3n2C)-c2ccccc2CO[C@H]1CN(C)S(C)(=O)=O | inactive: 1.01 |
| CN1CC(=O)N=C1NC(=O)[C@H]1CCCN(S(=O)(=O)c2ccc3c(c2)oc(=O)n3C)C1 | inactive: 1 |
| Cc1c2oc3c(C)ccc(C(=O)N[C@@H]4C(=O)N[C@H](C(C)C)C(=O)N5CCC[C@H]5C(=O)N(C)CC(=O)N(C)[C@@H](C(C)C)C(=O)O[C@@H]4C)c3nc-2c(C(=O)N[C@@H]2C(=O)N[C@H](C(C)C)C(=O)N3CCC[C@H]3C(=O)N(C)CC(=O)N(C)[C@@H](C(C)C)C(=O)O[C@@H]2C)c(N)c1=O | inactive: 1.01 |
| C[C@@H]1CCCCO[C@H](CN(C)CC2CCCCC2)[C@H](C)CN([C@@H](C)CO)C(=O)c2cc(NS(=O)(=O)c3ccccc3)ccc2O1 | inactive: 0.992 |
| Cc1ccc(S(=O)(=O)N(C)C[C@H]2OCCCC[C@H](C)Oc3ccc(NC(=O)Nc4ccc5c(c4)OCO5)cc3C(=O)N([C@@H](C)CO)C[C@@H]2C)cc1 | inactive: 1.03 |
| C[C@@H]1CN([C@@H](C)CO)C(=O)Cc2cc(NC(=O)C3CC3)ccc2O[C@@H]1CN(C)Cc1ccc2c(c1)OCO2 | inactive: 0.999 |
| C[C@@H]1CN([C@@H](C)CO)C(=O)c2cc(NC(=O)Nc3ccc(F)cc3)ccc2O[C@@H]1CN(C)C(=O)Nc1ccc(C(F)(F)F)cc1 | inactive: 1.02 |
| C[C@@H]1CCCCO[C@@H](CN(C)C(=O)c2ccccc2)[C@@H](C)CN([C@@H](C)CO)C(=O)c2cc(NC(=O)CCC(F)(F)F)ccc2O1 | inactive: 1.02 |
| CC=Cc1ccc2n(c1=O)C[C@H]1[C@H](CO)[C@@H](C(=O)NC3CCC3)N(S(C)(=O)=O)[C@@H]21 | inactive: 1 |
| CN1CCN(CC#N)C(=O)C12CCN(S(=O)(=O)C1CC1)CC2 | inactive: 1.04 |
| C[C@@H]1CN([C@H](C)CO)C(=O)CCCn2nncc2CO[C@@H]1CN(C)S(=O)(=O)c1ccc2ccccc2c1 | inactive: 1.01 |
| COC(=O)c1c(CC[C@@H](CO)NC(=O)Nc2ccc(OC)cc2)oc(C(=O)Cc2ccccc2)c1C(=O)OC | inactive: 1.01 |
| C[C@H]1CN([C@@H](C)CO)C(=O)c2cc(NS(=O)(=O)c3cccs3)ccc2O[C@H]1CN(C)S(=O)(=O)c1cn(C)cn1 | inactive: 1.01 |
| C[C@H](CO)N1C[C@H](C)[C@@H](CN(C)S(=O)(=O)c2ccc(F)cc2)Oc2cc(C3=CCCC3)ccc2S1(=O)=O | inactive: 1.05 |
| COc1ccc(NC(=O)Nc2ccc3c(c2)C(=O)N([C@H](C)CO)C[C@H](C)[C@H](CN(C)S(=O)(=O)c2ccc(OC)cc2)OCCCC[C@H](C)O3)cc1 | inactive: 1.06 |
| CO[C@@H]1CN(C)C(=O)c2ccc(NC(=O)c3cnccn3)cc2OC[C@@H](C)N(C(=O)c2cnccn2)C[C@H]1C | inactive: 1.01 |
| C[N+](C)(C)CC(=O)O | inactive: 0.983 |
| Cc1ccc(S(=O)(=O)Nc2ccc3c(c2)C(=O)N([C@H](C)CO)C[C@@H](C)[C@@H](CN(C)C(=O)Nc2cccc4ccccc24)O3)cc1 | inactive: 1.03 |
| O=C(O)c1ccccc1C(=O)Nc1ccc(S(=O)(=O)Nc2nccs2)cc1 | inactive: 1.04 |
| C[C@H]1CN([C@@H](C)CO)C(=O)c2cc(NC(=O)Nc3ccccc3)ccc2O[C@@H]1CN(C)S(C)(=O)=O | inactive: 0.994 |

| Compound | relative growth |
| --- | --- |
| C[C@@H]1CN([C@@H](C)CO)C(=O)Cc2cc(NC(=O)CCN3CCOCC3)ccc2O[C@H]1CN(C)CC1CCCCC1 | inactive: 0.956 |
| C[C@@H]1CN([C@@H](C)CO)C(=O)c2cc(NC(=O)Nc3ccc(C(F)(F)F)cc3)ccc2O[C@@H]1CN(C)Cc1ccc(C(F)(F)F)cc1 | inactive: 1.05 |
| C[C@@H]1CN([C@@H](C)CO)C(=O)c2cc(NC(=O)CCCN(C)C)ccc2O[C@@H]1CN(C)Cc1ccc2c(c1)OCO2 | inactive: 0.859 |
| O=C(/C=C/c1cccc(-c2cn(CC[C@@H]3OC(=O)[C@H](Cc4ccccc4)N4CC5=CC(=O)[C@H](C6CC6)[C@H]5[C@H]34)nn2)c1)NO | inactive: 1 |
| C[C@H]1CCCCO[C@H](CN(C)C(=O)c2ccccc2)[C@@H](C)CN([C@@H](C)CO)C(=O)c2cc(NS(=O)(=O)c3ccc(Cl)cc3)ccc2O1 | inactive: 0.999 |
| CC1=C(C)C(=O)C(CCCCCCCCCC[P+](c2ccccc2)(c2ccccc2)c2ccccc2)=CC1=O | inactive: 0.308 |
| COC(=O)C1=C(C)NC(C)=C(C(=O)OCC(C)C)[C@@H]1c1ccccc1[N+](=O)[O-] | inactive: 0.983 |
| NC1CCN(C(=O)N2CCCC2)CC1 | inactive: 0.966 |
| Cc1noc(C)c1S(=O)(=O)Nc1cccc2c1O[C@H](CN(C)Cc1ccc(C(=O)O)cc1)[C@@H](C)CN([C@@H](C)CO)C2=O | inactive: 1.01 |
| C[C@H](CO)N1C[C@H](C)[C@@H](CN(C)C(=O)Nc2cccc3ccccc23)OCCCC[C@H](C)Oc2ccc(NC(=O)NC3CCCCC3)cc2C1=O | inactive: 0.987 |
| Cc1noc(C)c1S(=O)(=O)Nc1ccc2c(c1)C(=O)N([C@H](C)CO)C[C@@H](C)[C@H](CN(C)C)OCCCC[C@@H](C)O2 | inactive: 1.01 |
| C[C@H]1CN([C@@H](C)CO)C(=O)CCCn2cc(nn2)CO[C@@H]1CN(C)Cc1ccc2c(c1)OCCN2C | inactive: 0.991 |
| COc1cccc(NC(=O)C[C@@H]2CC[C@H]3[C@H](COc4ccc(NC(=O)C5CCOCC5)cc4C(=O)N3C)O2)c1 | inactive: 1.04 |
| C[C@@H]1CN([C@@H](C)CO)C(=O)c2cc(NC(=O)c3ccncc3)ccc2O[C@H]1CN(C)S(=O)(=O)c1cccs1 | inactive: 0.991 |
| O=C(CN1CCOCC1)NCC[C@@H]1CC[C@H](NS(=O)(=O)c2ccc(Cl)cc2)[C@H](CO)O1 | inactive: 1.02 |
| C[C@@H]1CCCCO[C@H](CN(C)C(=O)Nc2ccc3c(c2)OCO3)[C@@H](C)CN([C@@H](C)CO)C(=O)c2cc(NS(=O)(=O)c3cccs3)ccc2O1 | inactive: 1 |
| CCC(=O)N(C)C[C@H]1Oc2ncc(C#C[C@H](C)O)cc2C(=O)N([C@H](C)CO)C[C@H]1C | inactive: 0.983 |
| C[C@H]1CCCCO[C@H](CN(C)Cc2ccc(C(=O)O)cc2)[C@@H](C)CN([C@@H](C)CO)C(=O)c2cc(NC(=O)Nc3ccc(C(F)(F)F)cc3)ccc2O1 | inactive: 0.931 |
| Cc1ccc(S(=O)(=O)N(C)C[C@@H]2Oc3ncc(C#CCN(C)C)cc3C(=O)N([C@H](C)CO)C[C@@H]2C)cc1 | inactive: 0.991 |
| C[C@H](NC(=O)C[C@H]1C[C@H]2c3cc(NC(=O)Nc4ccc(C(F)(F)F)cc4)ccc3O[C@H]2[C@@H](CO)O1)c1ccccc1 | inactive: 1 |

| Compound | relative growth |
| --- | --- |
| Nc1ccc(-n2cc(CCC(=O)NO)nn2)cc1 | inactive: 0.99 |
| O=C(NCCN1CCCC1)[C@@H]1N[C@@H]2c3ccc(-c4ccccc4)c(=O)n3C[C@@H]2[C@H]1CO | inactive: 0.992 |
| OCCN(CCO)c1nc(N2CCCCC2)c2nc(N(CCO)CCO)nc(N3CCCCC3)c2n1 | inactive: 1.14 |
| C[C@H](CO)N1C[C@H](C)[C@H](CN(C)S(=O)(=O)c2ccc(F)cc2)Oc2ncc(-c3ccccc3)cc2C1=O | inactive: 0.995 |
| Nc1nc(=O)c2ncn(COC(CO)CO)c2[nH]1 | inactive: 0.996 |
| Cc1noc(C)c1NC(=O)N(C)C[C@H]1Oc2c(NC(=O)c3ccncc3)cccc2C(=O)N([C@H](C)CO)C[C@H]1C | inactive: 1.01 |
| C[C@@H]1CN([C@@H](C)CO)C(=O)c2cccc(NC(=O)Nc3ccccc3)c2O[C@H]1CN(C)C(=O)Nc1cccc2ccccc12 | inactive: 0.984 |
| CCCNC(C)(C)COC(=O)c1ccccc1.Cl | inactive: 1.03 |
| NC1(C(=O)O)CCCC1 | inactive: 1 |
| CCC(=O)Nc1nn2c(C)nnc2s1 | inactive: 1.02 |
| CN(C)[C@@H]1C(=O)[C@@H](C(=O)NCNCCCC[C@H](N)C(=O)O)C(=O)[C@@]2(O)C(=O)[C@@H]3C(=O)c4c(O)cccc4[C@@](C)(O)[C@H]3C[C@@H]12 | inactive: 0.977 |
| C[C@@H]1CCCCO[C@@H](CN(C)Cc2ccccc2)[C@@H](C)CN([C@H](C)CO)C(=O)c2cc(NC(=O)Nc3ccc(F)cc3)ccc2O1 | inactive: 0.948 |
| COc1ccc(NC(=O)N(C)C[C@@H]2Oc3ncc(-c4cccc(C(F)(F)F)c4)cc3C(=O)N([C@H](C)CO)C[C@@H]2C)cc1 | inactive: 0.941 |
| C[C@@H]1CN([C@@H](C)CO)C(=O)c2c(c3ccccc3n2C)-c2ccccc2CO[C@H]1CN(C)Cc1ccc(F)cc1 | inactive: 0.983 |
| C[C@@H]1CCCCO[C@@H](CN(C)S(=O)(=O)c2cn(C)cn2)[C@H](C)CN([C@H](C)CO)C(=O)c2cc(NS(=O)(=O)c3cccs3)ccc2O1 | inactive: 0.93 |
| C[C@@H]1CN([C@H](C)CO)C(=O)c2cc(NC(=O)c3ccncc3)ccc2O[C@@H](C)CCCCO[C@H]1CN(C)S(=O)(=O)c1cn(C)cn1 | inactive: 0.965 |
| Cc1ccc(S(=O)(=O)Nc2ccc3c(c2)CC(=O)N([C@H](C)CO)C[C@@H](C)[C@H](CN(C)S(=O)(=O)c2ccc(F)cc2)O3)cc1 | inactive: 0.935 |
| C[C@H]1CN([C@@H](C)CO)S(=O)(=O)c2ccc(C3=CCCC3)cc2O[C@@H]1CN(C)C(=O)C1CCOCC1 | inactive: 0.956 |
| C[C@H](N)CCC(=O)NCS(=O)(=O)O | inactive: 1.03 |
| COc1ccc(CN(C)C[C@H]2OCCCC[C@@H](C)Oc3ccc(NC(=O)c4ccncc4)cc3C(=O)N([C@H](C)CO)C[C@H]2C)cc1 | inactive: 1 |
